Consider 167 variants from the RNAGym collection of RNA variant scans (doi:10.7554/elife.90254).

B1: LINE1-mini (parent)
chain: GGCAGAGCUCAACACAGCGUGGCAAAGUGGCUGUGGCUAGACUGCC

Read counts are not given, so values of variants with three or more changes are uncertain.

In the series the parent is B1. The experiment in a line: self-cleavage, relative activity (ratio to wild type); higher = more cleavage; in vitro, sequencing; the parent is a self-cleaving ribozyme.
Regarding A11U G29A G44U, the self-cleavage was 0.04.
As to A11C G33A C42G, the self-cleavage stood at 0.
On to A11U G17C C42A, for which the self-cleavage was determined as 0.02.
Under A11G C15G U32G G40A stands 0; under C10U U34G U38C C45A, 0.02; under A11U C13A A41C, 0.08.
The result for A11U G19U G35C reads 0.02.
Regarding A11G U32G G33C U43A, the self-cleavage was 0.
Turning to A12C A16U U32G C42A, the self-cleavage is 0.
The result for A11C G29U G30A reads 0.02.
Take A11C C18U G22C: the self-cleavage was 0.
A11G G30U U38C: the self-cleavage is 0.03.
Consider A11U U32C U34A, for which the self-cleavage came to 0.02.
As for A11G C13U G40U, the self-cleavage came out at 0.02.
For the variant A11G U28A G33U, the self-cleavage is 0.02.
For the variant A11C G17U G22A, the self-cleavage was 0.03.
Under A11C U20A G27U A39G stands 0.02.
On to A11G C18U G22C A24G U32C G36U C46G, for which the self-cleavage worked out at 0.01.
On to A11C A12G A26U, for which the self-cleavage stood at 0.
The result for A11G U20C A25U reads 0.04; that for A11G C15A A25G A26U, 0.04; that for A11C A16U U20G, 0.01.
A11G A25U G33U: the self-cleavage came out at 0.02.
In the case of A11C U20A G21C U32C C42A, the self-cleavage is 0.01.
On to A11C G19C C23G G35U, for which the self-cleavage was 0.
Consider A11G G19C U28A, for which the self-cleavage was found to be 0.01.
With A11U A12G A24G G35C C42G, the self-cleavage amounted to 0.
In the case of A11U U34G G36U, the self-cleavage came to 0.01.
Turning to A11U G17U G19A, the self-cleavage was 0.01.
The result for A11G C23A G33C G40U C45U reads 0; that for A11U U20A G22U G27C C37G A41U, 0.
For C10U U32A C45G, the self-cleavage amounted to 0.05.
Take A11G A26C C31A G33A: the self-cleavage turned out to be 0.02.
On to A11G A14C C18A U38G, for which the self-cleavage came to 0.
Take A11U C23A G30A: the self-cleavage is 0.24.
Take A11G G17A C45G: the self-cleavage amounted to 0.02.
As to A11C A14U G17C C46A, the self-cleavage is 0.01.
For A11U C13A G27A G30U C46A, the self-cleavage was determined as 0.05.
For A11U G29C G30U, the self-cleavage turned out to be 0.01.
With A11U G33U G36A A39G U43A, the self-cleavage was determined as 0.01.
A11G C23A C31U U43G C46G: the self-cleavage is 0.01.
Take A11G G19C G27C G36C: the self-cleavage amounted to 0.02.
Under A11G G17U U32C U34A U38G C45G stands 0.
For the variant A11C G17C G19U A39G, the self-cleavage came to 0.01.
A11U A14G A25G G35C: the self-cleavage came to 0.
On to A11U A24C G36U C37G, for which the self-cleavage is 0.
Consider A11U U34A C46U, for which the self-cleavage stood at 0.05.
Under A11C C23G G33C G35A G44U stands 0.01.
As for A11U A14G G17U A41U U43C, the self-cleavage turned out to be 0.02.
In the case of A11C A24U G29U C37G, the self-cleavage stood at 0.02.
Consider A11C G22C G27A G30U G40C, for which the self-cleavage came to 0.
The result for A11C A25G A26G U32C A41G reads 0.02.
For A12C A16U G17A C23G U34G U38A, the self-cleavage was determined as 0.
For A11U A24C C42U, the self-cleavage came out at 0.07.
In the case of A11C G33U U38C C46U, the self-cleavage is 0.01.
Regarding A11G U20C G33A U38G G40A, the self-cleavage is 0.
In the case of A11G G33A C42A G44U, the self-cleavage was found to be 0.02.
Under A11G A14U U32C G35U G44C stands 0; under A11U A25G U32A G44U, 0.02.
Under A11G C18A G30C G40C A41U stands 0.
The result for A11U G33U A41U C46U reads 0.01.
Regarding A11U G40C U43C, the self-cleavage stood at 0.02.
Turning to A11U G40C U43G, the self-cleavage is 0.
Consider A11C G19U G29U G44C, for which the self-cleavage came to 0.02.
With A11C G21U U28C C42U, the self-cleavage was found to be 0.1.
For the variant A11U A16C G35U C37A C42U, the self-cleavage was found to be 0.01.
With A12C C13A A25U U38G, the self-cleavage was 0.01.
As to A12C A14U U20G A25C U28G, the self-cleavage amounted to 0.01.
Under A11C G21A A26U G29A stands 0.1.
A11G C13A A16U U20A: the self-cleavage was 0.06.
The result for A11C G17U C18A reads 0.04.
As to A11C U20G C42A, the self-cleavage came to 0.01.
Consider A11C G19A A39C, for which the self-cleavage came out at 0.01.
For A11G G30U C37U G44U, the self-cleavage was found to be 0.01.
On to A11C G30U G36A, for which the self-cleavage amounted to 0.03.
The result for A11G G19C A26U reads 0.02; that for A11C A12U C15G, 0.04.
The result for A11C G27C G44U reads 0.03; that for A11C C23U G40A, 0.04.
On to A11C C15G A25G C42A, for which the self-cleavage was 0.01.
For the variant A11U A12U A41G G44C, the self-cleavage was 0.02.
A11C G22U U34C: the self-cleavage is 0.06.
As to A11U A12U U34C G35U, the self-cleavage amounted to 0.
As for A11G G22C C46A, the self-cleavage is 0.01.
In the case of A11U A24G G44C, the self-cleavage was 0.05.
With A11G A26G G40A C45U, the self-cleavage came to 0.01.
The result for A12C A16U G22U reads 0.03; that for A11G U20A A26C U34A G35C, 0.02.
For the variant A11G A14C C46G, the self-cleavage was 0.12.
Take A12C A24C A39G C42A: the self-cleavage was found to be 0.01.
In the case of A11C G36C C42G, the self-cleavage amounted to 0.
Under A11C C37U C42G stands 0; under A11U G27U U28G G35U G44U, 0.01.
Take A11U U28C C31U: the self-cleavage came out at 0.01.
The result for A11U C23A C31A reads 0.05.
For A11U G19A C31A G40U, the self-cleavage was 0.
Take A12C A24C A39U: the self-cleavage turned out to be 0.05.
A11U G22U U38C C42U: the self-cleavage was 0.06.
On to A11C A25C G30A A41U C42A, for which the self-cleavage is 0.01.
For A11G C13A A25U, the self-cleavage was 0.04.
Consider A11U C13G A14U A16G, for which the self-cleavage is 0.01.
As to A11G G29U G40A, the self-cleavage was 0.02.
Regarding A11G C15A A24C G27C C42A G44U, the self-cleavage came to 0.01.
As for A11G C15A G21U U38A A39C C46G, the self-cleavage is 0.
In the case of A11G C13A U20C C23A, the self-cleavage worked out at 0.01.
Under A11C G17U A25C C42U stands 0.03; under A11C U38A C46U, 0.03; under A11C C18U G22A C31G C42U, 0.01.
As to A11G A14G C15A G35U C42G, the self-cleavage was 0.
With A11G G19A G30A U34A, the self-cleavage is 0.02.
For A11C G27U U32A G40A, the self-cleavage is 0.02.
For the variant A11G C13A U32C, the self-cleavage is 0.
With A11C C23A G33C U38G, the self-cleavage amounted to 0.
On to A11G A24U C42A, for which the self-cleavage is 0.02.
Take A11C G35C C37U: the self-cleavage amounted to 0.01.
Take A11G C31A U34A U38C: the self-cleavage was found to be 0.
As for A11C U34G U38G, the self-cleavage is 0.
Consider A12C A14C G30C, for which the self-cleavage amounted to 0.15.
The result for A11G G17U C18A U28C G29U G33U G44A reads 0.02; that for A11G A12U G29C C31A, 0.02; that for A11U A25U A39U, 0.11.
In the case of A11G C13G G19A U28C G29A U32G G36C A41U, the self-cleavage came out at 0.01.
Take A11U A16C G21A: the self-cleavage amounted to 0.02.
As to A11C C15U U32C, the self-cleavage amounted to 0.01.
As for A11U C13G A25U G44A, the self-cleavage turned out to be 0.01.
Regarding A11U C15A A16G G40C, the self-cleavage came out at 0.01.
Consider A11G C13A G21A U34C G40C, for which the self-cleavage was 0.02.
With A12C A14C A16C C37A, the self-cleavage was 0.05.
With A11C G19C U34A G36A, the self-cleavage is 0.
With A11G U20G G29C G35A, the self-cleavage was 0.01.
On to A11C C18G G27A, for which the self-cleavage turned out to be 0.02.
A11G G33U U34G C37U: the self-cleavage amounted to 0.01.
On to A11G C31U C37A C42A, for which the self-cleavage was determined as 0.
With A11C C15G U38C, the self-cleavage turned out to be 0.02.
For A11C G27U G40C C46U, the self-cleavage amounted to 0.02.
For the variant A11C C15U U20A G27A A39G, the self-cleavage worked out at 0.01.
Regarding A11G A16C G21A C46U, the self-cleavage is 0.
As for A11G C18G C31A G35U U38A C45G, the self-cleavage turned out to be 0.02.
Take A11U A25U G30A C31A: the self-cleavage was found to be 0.03.
For A11U C23A U38G, the self-cleavage is 0.01.
As to A11U C13G C15G A26G, the self-cleavage was determined as 0.
The result for A11U G22U U34C G40U U43G C46A reads 0; that for A11U A16G G29U G30U, 0.03; that for A11G G21U U38G, 0.
Under A11C G17U G29U C46G stands 0.01; under A11G A14U A26G G44U, 0.01.
In the case of A11G G27U C46A, the self-cleavage came out at 0.02.
On to A11U C18G U43C G44A, for which the self-cleavage is 0.02.
In the case of A11C A12C A16G, the self-cleavage stood at 0.02.
Under A11C G36U C46A stands 0.
Under A11G C15A A16G stands 0.03; under A11C G19A G36C, 0.03; under A11G G40C C46U, 0.02.
The result for A11G G17A G35A reads 0.02; that for A11U A25C G35A, 0.02.
Turning to A11C G19C C23A A39U A41G C46U, the self-cleavage was determined as 0.03.
As for A11U A25C U38C G40C, the self-cleavage came out at 0.
With A11C A24G C31A C42G, the self-cleavage is 0.01.
With A11U A25C G29C, the self-cleavage is 0.18.
For A11C U34C G36C, the self-cleavage turned out to be 0.01.
In the case of A11C A24C G36C, the self-cleavage was 0.03.
For the variant A11U G17A C45G, the self-cleavage was 0.03.
For the variant A11G G19A G40U C42U, the self-cleavage is 0.01.
Regarding A11C A12U A14G C23G A26G G27A, the self-cleavage amounted to 0.01.
A11G G19C A26C C31G C45U: the self-cleavage was 0.
Regarding A11G C31U G35A G36U U43C C45A, the self-cleavage stood at 0.02.
With A12C A14C C15U G27A, the self-cleavage came to 0.02.
